Among the data in PubChem BioAssay AID463173 (ICCB-Longwood Screening Facility, Harvard Medical School, 2010) are survival values, retold here.

Out of some 52,000 compounds screened, about 1,700 (3.3%) were called active. Rule as the data show it: active = survival mostly below about 52% (no sharp cut-off); inactive = mostly above about 56%. The list shows a part of the results.

This assay has as its system Wild type. Kind of assay: growth inhibition of S. aureus wild type versus tarO mutant, primary screen, teichoic acid synthesis inhibitors, RN4220, OD600 (AID 463173). To be noted: S. aureus RN4220 wild type/DeltatarO growth, OD600, 18 h, stronger effect = lower value, screened at 18.75 µg/mL (by protocol).
As for `COc1ccc(-c2nc(C(N)=O)c3c(n2)n(-c2ccccc2OC)c(=O)n3C)c(OC)c1`, the survival is inactive: 99%.
The value for `CC(C)NC(=O)CC(=O)Nc1ccc2nc3n(c(=O)c2c1)CCCCC3` was inactive: 75%.
For the molecule `O=C(NC1CCCCCC1)c1cc2c(Cl)nc3ccccc3c2s1`, the survival was inactive: 123%.
For the molecule `CCOc1ccccc1NC(=O)C(NS(=O)(=O)c1ccc2c(c1)CCC(=O)N2)c1ccccc1` (centres undefined), the survival is inactive: 76%.
`CSc1cccc(NC(=O)C2CCN(c3ncnc4c3nc3n4CCCCC3)CC2)c1`: the survival is inactive: 89%.
`O=C(c1ccc(F)cc1)N1CCC(c2nc3ccccc3o2)CC1`: the survival was inactive: 81%.
`O=C(O)c1cccc2cc[nH]c12`: the survival is inactive: 102%.
For `O=C(CCC(=O)N1CC2CCCN2c2ccccc21)NCc1ccccc1` (centres undefined), the survival was inactive: 88%.
As for `COc1ccc(CNC(=O)c2ccc3c(c2)N(C)C(=O)C2CCCCN32)cc1OC` (centres undefined), the survival is inactive: 59%.
For `CC(C)(C)c1ccc(Oc2nc3ccccn3c(=O)c2/C=C(\C#N)c2nc3ccccc3[nH]2)cc1`, the survival is inactive: 82%.
For `CCOc1ccc(CC(=O)NCCc2csc(-c3ccc(C(F)(F)F)cc3)n2)cc1` the value was inactive: 90%; for `Cc1nn(-c2ccccc2)c(=O)c2ccccc12`, inactive: 98%.
For `Cc1nn(C(=O)COc2ccccc2)c(C)c1Sc1ccccc1`, the survival was inactive: 94%.
For the molecule `CCCCOc1ccc(C(=O)N2CCC(c3nc4ccccc4o3)CC2)cc1`, the survival is inactive: 79%.
Take `CCOC(=O)c1ccc(NC(=O)C2=C(C)Nc3nc(SCc4ccc(Cl)cc4)nn3C2c2ccc(C)cc2)cc1` (centres undefined): the survival is inactive: 86%.
Turning to `COc1ccc(OC)c(NC(=O)CSc2nc(-c3ccccc3C)nc3cc(=O)[nH]n23)c1`, the survival is inactive: 60%.
`COC(=O)c1sc2cccc(F)c2c1S(=O)(=O)N1CCN(c2ccccc2OC)CC1`: the survival was inactive: 47%.
The value for `CC1CCN(C(=O)CN2CCSc3ccccc32)CC1` was inactive: 73%; that for `CC(NC(=O)c1nn(C)c2c1CSc1ccccc1-2)c1ccccc1` (centres undefined) was inactive: 87%; that for `CCN(CC)c1ccc(C(=O)NCCN)cc1` was inactive: 106%.
For `O=C(Nc1ccc(SC(F)F)cc1)c1cc(-c2cccs2)on1`, the survival is inactive: 91%.
Take `CCOc1ccc(C(=O)Nc2nnc(S(=O)(=O)N(CC)c3ccccc3C)s2)cc1`: the survival is inactive: 72%.
The value for `CC(=O)c1cccc(NC(=O)CCCN2C(=O)COc3ccc(C)cc32)c1` was inactive: 124%; that for `O=C(NCCc1ccccc1)c1ccc2c(c1)CCN2S(=O)(=O)c1ccc(Br)cc1` was inactive: 90%; that for `Cc1ccc(-c2cc(NC(=O)C(C)Oc3ccc(C)c(C)c3)on2)cc1` (centres undefined) was inactive: 123%.
With `Cc1[nH]c2ccccc2c1/C=N\NC(=O)Cn1nnc(-c2ccccc2)n1`, the survival is inactive: 103%.
On to `COc1ccc(CNc2ccc3cc(S(=O)(=O)N4CCCCC4)ccc3n2)cc1`, for which the survival is inactive: 63%.
For `Cc1ccc(C)c(NC(=O)CN2C(=O)CSc3nc(C)cc(C)c32)c1` the value was inactive: 81%; for `O=C(Cc1ccccc1)Nc1c(C(=O)N2CCN(c3ccc(F)cc3)CC2)oc2ccccc12`, inactive: 22%.
With `COc1ccc(N2CC(c3nc(-c4cc(OC)c(OC)c(OC)c4)no3)CC2=O)cc1Cl` (centres undefined), the survival was inactive: 128%.
For `O=C(CCS(=O)(=O)c1cccs1)Nc1ccc(C(=O)Nc2cccc(Cl)c2)cc1` the value was inactive: 89%; for `COc1cc(OC)cc(C(=O)N2CCC(c3ccncc3)CC2)c1`, inactive: 69%.
The value for `CCC(=O)N1CCCc2cc(S(=O)(=O)N3CCC(C(=O)Nc4ccc(F)c(F)c4)CC3)ccc21` was inactive: 135%.
Consider `CCNc1nc2c(c(=O)[nH]c(=O)n2C)n1CC(O)COc1ccc(Cl)cc1Cl` (centres undefined), for which the survival is inactive: 160%.
The value for `Cc1cc(C)c2c(=O)c3c(oc2c1)C(=O)N(Cc1ccc(F)cc1)C3c1cccc(O)c1` (centres undefined) was inactive: 64%.
Take `CC(C)(C)CC(=O)Nc1nnc2n1CCS2`: the survival was inactive: 92%.
Consider `COc1cccc(NC(=O)CN2CCCN(S(=O)(=O)c3ccc(Br)cc3)CC2)c1`, for which the survival was inactive: 66%.
The value for `COc1ccc(Cn2ccnc2SCC(=O)Nc2ccc(C)cc2C)cc1` was inactive: 68%.
On to `Cc1ccc(CNC(=O)CN(c2ccc(C(C)C)cc2)S(=O)(=O)c2c(C)n[nH]c2C)cc1`, for which the survival is inactive: 72%.
For the molecule `COc1ccccc1CNC(=O)CN1C(=O)CSc2c1c(C)nn2-c1ccccc1`, the survival was inactive: 70%.
Take `O=C(NCCSCc1c(F)cccc1Cl)C1CCN(S(=O)(=O)Cc2ccccc2)CC1`: the survival was inactive: 87%.
For `O=C(COc1ccc(Cl)cc1)Nc1ccccc1C(=O)OCc1cc(=O)n2ccsc2n1`, the survival is inactive: 76%.
Regarding `CCCC(=O)NCC(c1ccc2c(c1)OCO2)N1CCOCC1` (centres undefined), the survival is inactive: 83%.
For the molecule `CC(=O)c1ccc(NS(=O)(=O)c2cc3[nH]c(=O)c(=O)[nH]c3cc2C)cc1`, the survival was inactive: 131%.
For `COc1ccc(S(=O)(=O)NCCc2nnc3ccc(SCC(=O)Nc4ccc(C(F)(F)F)cc4)nn23)cc1` the value was inactive: 87%; for `Cc1ccc(C)c(N2CCN(C(=O)Cn3ncc4c(=O)oc5ccc(C)cc5c43)CC2)c1`, inactive: 79%.
For `CCOc1ccccc1CNc1ncnc2c1nc1n2CCCC1`, the survival is inactive: 79%.
The value for `CSc1ccc(CCNC(=O)CCc2c(C)nc3c(-c4ccccc4)c(C)nn3c2C)cc1` was inactive: 74%; that for `Cc1ccccc1Cn1nc(C)c(NC(=O)c2cc(-c3ccc(F)cc3)on2)c1C` was inactive: 79%; that for `CCCn1c(=N)c(C(=O)NCc2cccnc2)cc2c(=O)n3cc(C)ccc3nc21` was inactive: 84%.
For the molecule `COc1cccc(/C=C/c2nc(C#N)c(N3CCCCC3)o2)c1`, the survival is inactive: 67%.
The value for `O=C(c1cnc2cc(-c3ccccc3)nn2c1)c1cc([N+](=O)[O-])ccc1O` was active: 19%.
The value for `CC1(N2CCOCC2)CC(=O)N(c2ccccc2)O1` (centres undefined) was inactive: 112%.
With `O=C(C1CCCN(S(=O)(=O)c2cccc3nonc23)C1)N1CCN(c2cccc(Cl)c2)CC1` (centres undefined), the survival was inactive: 55%.
Turning to `CCc1ccc(CSc2nc(-c3ccccc3OC)nc3c2Cc2c(CO)cnc(C)c2O3)cc1`, the survival was inactive: 121%.
The value for `CCc1ccc(NC(=O)c2cc(-c3cccs3)on2)cc1` was inactive: 140%; that for `O=C(CN1CCSc2ccccc21)N1CCN(c2ccccc2)CC1` was inactive: 126%; that for `CCn1cc(C2N3CC4(CC)CN2CC(CC)(C3)C4=O)c2ccccc21` (centres undefined) was inactive: 81%.
Take `CCOC(=O)c1c(NC(=O)/C=C/c2ccc(OC)c(OC)c2)sc(C(C)=O)c1C`: the survival is inactive: 145%.
Turning to `COC(=O)c1ccc2c(=O)n(CCCCCC(=O)NCc3ccccc3)c(=O)[nH]c2c1`, the survival was inactive: 83%.
The value for `Cc1cccc(-n2c3c(cc(-c4nc(-c5ccc(Cl)cc5)cs4)c2=O)C(=O)CC(C)(C)C3)c1` was inactive: 69%; that for `COc1ccccc1CNC(=O)C1CCCN(c2nn3cc(-c4ccc(F)cc4)nc3s2)C1` (centres undefined) was inactive: 77%; that for `CCOC(=O)c1cnc2cc(C(F)(F)F)ccc2c1N1CCN(c2ccc(F)cc2)CC1` was inactive: 58%.
Consider `CCOc1ccc2nc(Nc3nc4c(c(=O)[nH]3)CCCC4)nc(C)c2c1`, for which the survival was inactive: 114%.
In the case of `CCOc1ccc(CCNC(=O)CS(=O)Cc2nc(-c3ccc(C)cc3)oc2C)cc1OCC` (centres undefined), the survival is inactive: 80%.
Consider `Cc1ccc(Cn2ccn(CC(=O)Nc3ccccc3C(F)(F)F)c(=O)c2=O)cc1`, for which the survival was inactive: 114%.
For `CC(=O)c1ccc(NC(=O)c2ccc3c(c2)N(Cc2cccc(Cl)c2)C(=O)c2ccccc2S3(=O)=O)cc1`, the survival is inactive: 96%.
The value for `CCOC(=O)c1c(C)[nH]c(C)c1S(=O)(=O)N1CCC(C(=O)Nc2ccc(F)cc2F)CC1` was inactive: 82%; that for `CCOc1ccccc1NC(=O)Cn1c(=O)n(CCCC(=O)NCCOC)c(=O)c2cc(OC)c(OC)cc21` was inactive: 67%.
Take `COC(=O)c1ccccc1NC(=O)CSc1nc(-c2ccccc2)cc(C(F)(F)F)n1`: the survival was active: 19%.
With `Cc1cc(Cl)ccc1NC(=O)CN1C(=O)CSc2ccc(S(=O)(=O)N(C)C)cc21`, the survival is inactive: 68%.
For `CCn1c(NN)nc2sc3c(c2c1=O)CC(C)(C)OC3` the value was inactive: 107%; for `CCOCCc1nn2c(=O)cc(COC(=O)COc3ccccc3Cl)nc2s1`, inactive: 78%; for `COc1ccc(CNC(=O)Cn2ccc3cc(S(=O)(=O)N4CCCCC4)ccc32)c(OC)c1`, inactive: 64%.
On to `Cc1ccc(NC(=O)CN2CCCN(Cc3ccccc3Cl)S2(=O)=O)c(C)c1`, for which the survival was active: -1%.
`O=c1c2ccccc2nc2n1CCS2`: the survival is inactive: 103%.
The value for `COc1ccccc1CNC(=O)CCc1c(C)nc2cc(-c3ccccc3OC)nn2c1C` was inactive: 70%.
Regarding `O=C(CSc1nnc(COc2cccc3ccccc23)n1CC1CCCO1)NC1CC1` (centres undefined), the survival is inactive: 110%.
For `CCOc1ccc(C2c3[nH]c4ccccc4c3CCN2C(=O)Cc2cccc(OCC)c2OCC)cc1` (centres undefined), the survival was inactive: 140%.
With `Cc1ccccc1Cn1nnc2c(=O)[nH]c(C3CCN(C(=O)c4ccccc4)CC3)nc21`, the survival is inactive: 25%.
In the case of `CCOC(=O)c1cnc2ccc(C(=O)OC)cc2c1Nc1ccccc1CC`, the survival is active: -1%.
For `COc1ccc(-c2nc3sc(CCNC(=O)c4cccc(C(F)(F)F)c4)c(C)n3n2)cc1` the value was inactive: 70%; for `Cc1cc(C)cc(-n2ccnc2SCC(=O)Nc2nc3ccccc3s2)c1`, inactive: 70%.
For `CCC(C(=O)NCc1ccccc1OC)n1nc(C)n2c(cc3sccc32)c1=O` (centres undefined), the survival was inactive: 76%.
Turning to `CCOC(=O)c1c(S(=O)(=O)NCC(=O)Nc2ccc(C)c(Cl)c2)c(C)n(C)c1C`, the survival was inactive: 55%.
On to `COC(=O)c1cc(-c2cocc2C=C(C#N)C#N)ccc1Cl`, for which the survival is inactive: 110%.
In the case of `Cc1[nH]c2ccc(S(N)(=O)=O)cc2c1C`, the survival was inactive: 107%.
With `CSc1ncc(C(=O)NCc2ccccc2)c(-c2ccccc2)n1`, the survival was active: 10%.
For `CC(C)Oc1ccc(CNC(=O)c2ccc(NC(=O)N3CCSc4ncccc43)cc2)cc1` the value was active: 1%.
